Results as given in patent publication US11932650B2, “Potent agelastatin derivatives as modulators for cancer invasion and metastasis” (Massachusetts Institute of Technology, priority 2017, dated 2024).

Key:
[1] = tested on: SUM 1315, SUM159, MCF7, BT474, SKBR3, MCF10A; assay: 3D co-culture invasiveness across breast cancer cell line sub-types; type: cell-based, human; settings: each cell line; SUM1315 and BT474 most sensitive, MCF7 and MCF10A least sensitive; FIG. 14
[2] = Toxicity of AgA dosing in mice (dose-toxicity experiment); type: in vivo
[3] = tested on: breast cancer cell line SUM1315 and Tiam1-deficient fibroblast mixed cell xenograft; assay: Direct treatment of mixed cell tumor-fibroblast xenograft-bearing mice; settings: for body weight of xenograft-bearing mice: FIG. 10A (AgA), FIG. 12A (AgE); for primary tumorigenesis: at the doses used; for lung metastasis in the mixed cell xenograft model: at tolerable doses; for mice with 0 lung metastases: FIG. 13
[4] = tested on: SUM1315 breast cancer cells; assay: Tumorsphere assay of post-co-culture SUM1315 cells; type: cell-based, human
Method: Tumorsphere Assays (FIG. 6). The SUM1315 breast cancer cells isolated from 3D co-cultures with indicated mammary fibroblasts and indicated concentrations of AgA or AgE were trypsinized and cell clumps were broken up by gentle pipetting several times. After low-speed centrifugation (1200 rpm), cell pellets were re-suspended in corresponding culture medium, and passed through a 40-μm filter to obtain single cell suspensions. Five thousand cells in 4 mL culture medium were plated per well in ultra-low attachment 6-well plates. Tumorspheres were quantitated within 10 to 14 days in culture and sphere images were obtained on an Eclipse TS100 inverted microscope.

[5] = tested on: SUM1315 breast cancer cells; assay: Flow cytometry for CD44+/CD24-/ESA+ populations in post-co-culture SUM1315 cells; type: cell-based, human
Method: Flow Cytometry Assays (FIG. 7). Populations of SUM1315 breast cancer cells were quantified by flow cytometry for expression of indicated cell surface markers using fluorophore-conjugated antibodies after isolation from 3D co-cultures with indicated fibroblasts. Aliquots of 0.5×10^6 cells in 100 μL of fluorescence-activated cell sorting buffer (phosphate-buffered saline with 2% bovine serum albumin) were stained with epithelial cell adhesion molecule epithelial specific antigen (ESA) fluorescein isothiocyanate (FITC) [clone VU-ID9, 1:10]. […] At the end of incubation, 900[…]μL of fluorescence-activated cell sorting buffer was added to the cell/antibody mixture, and cells were then analyzed using an advanced digital processing analyzer. To set background gating, other cell aliquots were stained with isotype control antibodies conjugated with corresponding fluorophore (APC mouse immunoglobulin G (IgG) subclass 2b kappa (κ); PE mouse IgG2a κ; FITC mouse IgG) so that the nonspecific CD44^+/CD24^−/ESA^+ staining represented less than 0.5% of the cell population. Cells were first gated using APC and PE to identify the CD44^+/CD24^− population, followed by secondary gating on FITC to identify the CD44^+/CD24^−/ESA^+ cells.

[6] = 1.25, 0.625 and 0.25 mg/kg in DMSO, 5x/week IP, FIG. 9

Structure (SMILES)	increased invasiveness from co-culture with Tiam-deficient fibroblasts [1]	induced toxicity in the mice, time from treatment initiation ([2]; 2.5 mg/kg, serial-treated mice bearing breast cancer xenografts) [weeks]	body weight [2, 6]	physical signs of toxicity (fur ruffling, hunching, decreased movement) [2, 6]	body weight of xenograft-bearing mice [3]	primary tumorigenesis [3]	lung metastasis in the mixed cell xenograft model [3]	final tumor weights at the implantation site at necropsy ([3]; versus DMSO vehicle cohort, FIG. 10B, no effect on primary tumorigenesis)	increased numbers of tumorspheres induced by Tiam1-deficient fibroblasts ([4]; 75-nM concentration, FIG. 6 column 6)	increased numbers of cancer stem cells (CD44+/CD24-/ESA+) induced by Tiam1-deficient fibroblasts ([5]; 75-nM concentration, FIG. 7 column 6)	mice with 0 lung metastases ([3]; AgE 0.625 mg/kg)	mice with 0 lung metastases ([3]; AgE 1.25 mg/kg)	growth kinetics of tumor growth at the implantation site ([3]; versus DMSO vehicle cohort, FIG. 12B, no effect on primary tumorigenesis)	numbers of tumorspheres induced by Tiam1-deficient fibroblasts ([4]; 25-nM concentration, FIG. 6 column 7)	tumorsphere numbers ([4]; 50-nM concentration, FIG. 6 column 8)	numbers of cancer stem cells (CD44+/CD24-/ESA+) ([5]; 25-nM concentration, FIG. 7 column 7)	cancer stem cell (CD44+/CD24-/ESA+) numbers ([5]; 50-nM concentration, FIG. 7 column 8)
CN1C(=O)N[C@H]2[C@@H]3NC(=O)c4ccc(Br)n4[C@@H]3C[C@]21O [AgA (1), (−)-agelastatin A]	blocks the increased invasiveness	≤ 2	gained weight as expected	none exhibited physical signs of toxicity	gained weight as expected	do not significantly impair primary tumorigenesis	effective in suppressing/preventing lung metastasis	the same in all cohorts	completely blocked	completely blocked	–	–	–	–	–	–	–
CO[C@@]12C[C@@H]3[C@@H](NC(=O)c4ccc(Br)n43)[C@@H]1NC(=O)N2C [AgE (5), (−)-agelastatin E]	blocks the increased invasiveness	–	–	–	gained weight as expected	do not significantly impair primary tumorigenesis	effective in suppressing/preventing lung metastasis	–	–	–	about 80%	all mice had 0 metastases	the same in all cohorts	partial effect	below baseline	partial effect	below baseline
